Experimental data: PubChem BioAssay AID602393 (Broad Institute, 2012)
In all, about 350,000 compounds went through this assay and about 7,000 (2%) were called active. The shares of active, inactive and inconclusive entries below differ from those in the screen. Rule as the data show it: active = activation above about 40%; inconclusive = no clear call, values can overlap the other calls; inactive = below that.

assay: raisers of Bmi1 knock-in reporter signal – mouse ES cells, Bmi1 luciferase knock-in, single point, esBAF inhibitor project, primary screen (AID 602393); settings: 24 h, at 12.5 µM, active compounds read high, 100% = twice the neutral-well signal;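 also: 0% = median of the plate's neutral control wells and 100% = double that signal; a rise in the Bmi1 reporter signal indicates esBAF inhibition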

Reporter increase, inactive:
CO[C@H]1CC[C@@H]2CCOc3ccc(C#N)cc3C(=O)N(C)C[C@H](C)C(=O)N(C)C[C@H]1O2 -0.843%
CCc1nnc(NC(=O)C=C(C)C)s1 25.6%
COc1cc(OC)cc(C(=O)NCC(=O)Nc2ccc(C)c(Cl)c2)c1 0.033%
O=C([C@H]1[C@H](CO)[C@H]2Cn3c(cccc3=O)[C@H]2N1Cc1ccccc1)N1CCCCC1 5.35%
COc1ccccc1OCC(=O)Nc1ccc(S(=O)(=O)N2CCCC2)cc1 0.261%
CN1C(=O)c2cc(NC(=O)Nc3ccccc3F)ccc2OC[C@@H]2O[C@H](CC(=O)O)CC[C@H]21 -2.16%
CO[C@H]1CN(C)C(=O)c2ccc(NC(=O)c3cc(C)on3)cc2OC[C@H](C)N(C(C)=O)C[C@H]1C 1.16%
C[C@@H](NC(=O)C[C@@H]1CC[C@H](NC(=O)C2CC2)[C@@H](CO)O1)c1ccccc1 2.71%
CN1/C(=C\C=C2/SC(=S)NC2=O)C(C)(C)c2ccccc21 -20.9%
CCOc1ccc(NS(=O)(=O)c2ccc(C(=O)NNC(=O)c3ccccc3O)cc2)cc1 0.588%
COc1ccc(S(=O)(=O)N(C)C[C@H]2OCCCC[C@H](C)Oc3ccc(NC(=O)c4ccncc4)cc3C(=O)N([C@@H](C)CO)C[C@@H]2C)cc1 -4.43%
CCC(=O)Nc1ccc2c(c1)C(=O)N(C)C[C@H](OC)[C@H](C)CN(C(=O)Cc1cccnc1)[C@@H](C)CO2 1.09%
N#CC(=Cc1ccccn1)c1nc(-c2ccc(Cl)cc2)cs1 23.7%
CCCNC(=O)[C@@H]1[C@@H](CO)[C@@H]2Cn3c(ccc(C4=CCCC4)c3=O)[C@@H]2N1C(=O)CC1CC1 1.33%
CNC[C@H]1OCCCC[C@@H](C)Oc2ccc(NC(=O)C3CCCCC3)cc2C(=O)N([C@H](C)CO)C[C@H]1C -1.97%

Reporter increase, inconclusive:
CN(C=O)c1ccc(CSc2ccccc2)cc1 51%
Cn1c(NC(=O)/C=C\c2ccccc2)cc(=O)n(C)c1=O 56.1%
Cc1sc(NC(=O)C2CCCCC2C(=O)O)c(C(N)=O)c1-c1ccccc1 (stereo unspecified) 45.9%
O=C(CSc1nnc(-c2ccc(Cl)cc2)o1)N1CCOCC1 40.8%
C[C@@H]1CCCCO[C@H](CN(C)C(=O)Nc2ccc(F)cc2)[C@H](C)CN([C@@H](C)CO)C(=O)c2cc(NC(=O)Nc3ccc4c(c3)OCO4)ccc2O1 44.9%
CCN(CC)c1ccc(C(=O)c2cnc(/N=C/N(C)C)s2)cc1 40.8%
Brc1ccccc1-n1nnc(-c2nccs2)n1 43.8%
O=C1c2ccccc2C(=O)N1CCOc1ccccc1Cl 41.8%
Cc1ccc(/C=N/NC(=O)c2cc(C)oc2C)cc1 45%
NC(=O)c1cccn1-c1ncc(C(F)(F)F)cc1Cl 40.4%
Nn1c(SCc2c(F)cccc2F)nnc1-c1ccccn1 44.9%
Cc1ccc(NC(=O)NC(=O)c2ccccc2)cc1F 42.3%
CN(C)S(=O)(=O)c1cccc(NC(=O)COC(=O)/C=C/c2ccc3c(c2)OCO3)c1 42.7%
O=C(CC1CCCCC1)NCc1ccccc1 42.4%
C/C(=N\Nc1cc(Cl)nc(C)n1)c1ccccc1 48.1%
Cc1noc(C)c1C(=O)Nc1nc(-c2cccs2)cs1 41%
CCOC(=O)c1cc2cc(OC)ccc2[nH]1 43.6%
N/C(=N\OC(=O)c1ccc(Br)cc1)c1ccncc1 41.6%
c1ccc(CSc2nnc(-c3ccco3)n2Cc2ccco2)cc1 66.6%
COCCNC(C(=O)Nc1ccc(C)cc1[N+](=O)[O-])c1ccccc1 (stereo unspecified) 41.1%
COc1ccc(NC(=O)c2cc3ccccc3cc2O)cc1 40%
COc1cccc(NC(=O)NCCC2=CCCCC2)c1 46%
COc1ccc2c(c1OC)C(=O)OC2Nc1nc(-c2cc3cc([N+](=O)[O-])ccc3oc2=O)cs1 (stereo unspecified) 41.3%
N#C/C(=C\c1ccc(O)c(O)c1)C(=O)Nc1ccccc1 42.5%
COc1ccc2oc(C(=O)NC3CCCCC3)c(C)c2c1 45.5%
N/C(Cc1nc(-c2ccc(Cl)cc2)cs1)=N/O 41.8%
Oc1ccccc1N1CCN(c2ccc3ccccc3n2)CC1 41.9%
COc1ccc(C2CC(c3cccs3)=NN2S(C)(=O)=O)cc1 (stereo unspecified) 41.2%
COC(=O)/C(=C/c1cccc([N+](=O)[O-])c1)NC(=O)c1ccc(OC)cc1 40.3%
O=C(Nc1ccc2ncccc2c1)c1cccc(Br)c1 57.8%
COC(=O)c1ccc(Nc2nc3ccc(C)cc3n3cnnc23)cc1 44.5%
O=C(NCCc1ccccc1)C(=O)NC1CCCCC1 41.6%
O=C(Nc1ccc2oc(-c3ccccc3F)nc2c1)c1ccco1 43%

Reporter increase, active:
Clc1ccc(OCc2cn3cccnc3n2)c2ncccc12 57.4%
N#CCC(=O)Nc1ccc(C(=O)OCC(=O)c2ccc3c(c2)OCO3)cc1 46.6%
Cc1ccc(Cc2c(-c3ccc(F)cc3)nc3cc(C)ccn23)cc1 44.2%
NC(=O)NC[C@@H]1CC[C@@H](Cc2ccc(-c3ccccc3)cc2)O1 69%
CCCCNc1cc(NC(C)=O)cc2cc(OC)c(OC)cc12 47.2%
CN(C)c1cccc(-c2csc(N3CCC(C(N)=O)CC3)n2)c1 60.3%
COc1ccc(O)c(-c2cc(-c3ccccc3Cl)[nH]n2)c1 73.7%
CC(=O)Nc1cccc(NC(=O)C(=O)c2cn(CC(=O)N3CCCC3)c3ccccc23)c1 47.2%
